Laboratory results published in the supplement of paper PMC11417369.
The list shows a part of the results.

System: PfHDP1 homeodomain (GST-tagged)
Assay: gcPBM binding intensity (ln(normalized median fluorescence intensity)); higher = stronger DNA binding
In short: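 The highest Masliner-normalised natural-log median intensity across replicate spots of either probe orientation is reported as binding intensity. GST-tagged P. falciparum DNA-binding domains expressed in E. coli were applied for 1 h to an Agilent 4 × 180k array of primer-extended double-stranded 36-bp intergenic genomic probes plus negative controls, and bound protein was detected with Alexa488 anti-GST antibody and scanned at 488 nm.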

Row | Sequence | gcPBM binding intensity (ln)
1 | ATAAAATTATATACTCGTACACAAAAAAAAAAAATA [XGTACX_site6035] | 6.59
2 | AAATATATTTTTTTTTGTACTCAAAAAGAAAAAAAA [XGTACX_site8540] | 6.03
3 | AAAAATTGAATGATGTGTACTTAAAAGAATATAGAA [XGTACX_site6588] | 6.56
4 | TTTTAATTAAATACAAAAAAAAAAAAAAAAAAAAAA [CACACA_negctrl_site1631] | 5.97
5 | TTTACACTTTTTTTTGTACACACTAATAAGATTAAC [CACACA_site9304] | 6.86
6 | AAAAAAATTTTTAAAAGTACATTAATATTAATATGT [XGTACX_site5177] | 6.77
7 | ACATTACAATTATTATAATCAATATATAACCTCTAA [TGCATGCA_negctrl_site105] | 6.47
8 | TTTTTTTATTATTATTGTACAAGGCCTTAGGTGATT [XGTACX_site5050] | 6.53
9 | TTTTCATGTTTTTTTCTTTATTTTTTTTTTTTTTTT [GTGCAC_negctrl_site511] | 6.24
10 | TACTTAATTATAAGGACATGCACAAAAGGAATTATT [TGCATGCA_site468] | 8.01
11 | AATTTTCATTTTAGAAGTACACACAAAAAATAAAAT [XGTACX_site4426] | 6.58
12 | ATTATATTTCAATTATGTACATATAAAATGAATAAA [XGTACX_site4204] | 6.23
13 | ATAAAATGCGCAAACACACACAAAAAAAAGATATAT [CACACA_site6875] | 7.67
14 | TTTTTAATTAATCTTATAAATATTTATAAATATATA [CACACA_negctrl_site1485] | 6.39
15 | ATGTAATCATTTTCGACTTTTTTTTTTTTTTTTTTT [CACACA_negctrl_site1132] | 6.66
16 | AGGAAATGTTTATATACATGCATAATTAAATATAAT [TGCATGCA_site672] | 6.58
17 | CATATTGTCATTCTGGTGCACTTTTTTTTTTTTTTT | 10
18 | ATATAATATAACAATACGCACACGTATACAAAAAAA [CACACA_site3151] | 7.03
19 | AATAAAAAAAAAAATAATATATATGTATAAATATAT [CACACA_negctrl_site1561] | 6.32
20 | AATACTCCATTGTATAGTACATATATTTTTATTTAT [XGTACX_site3641] | 6.41
21 | AGAATTTATAAAAACTGTACATATTTTCCAGTTATA [XGTACX_site2848] | 6.04
22 | TATTTTTATTTATATACACACTTACATATTTATATT [CACACA_site7666] | 6.67

Row | Sequence | gcPBM binding intensity (ln)
23 | GTTGTAAAAAGAAAATGTACGTAATAAATATATATA [XGTACX_site3081] | 6.98
24 | ATAAATAATATAAATACACACTAAAAAAGATATATA [CACACA_site6397] | 6.67
25 | AAATAAAATACAATATGATAAAATGTTATCATATAT [CACACA_negctrl_site538] | 6.19
26 | AATAAAAGGAATAATTGTACATAATGATTATACGTT [XGTACX_site7548] | 6.25
27 | TTTTGTAAAATTAATTTATTATACATATATATTTCT [GTGCAC_negctrl_site728] | 6.35
28 | TTATTTTAATTTTTGGTGCATATTCAAGTGTACCTT [GTGCAC_site9791] | 9.95
29 | TAATGTACTTAAACCGCACACATATAAAAAAATAAA [CACACA_site8926] | 6.5
30 | TATTTACATATTTATATACACACTTTTGCGTGTCTG [CACACA_site1110] | 6.62
31 | TATTTTAACTTCTCATGTACATATATTATGTCTATA [XGTACX_site249] | 6.9
32 | CTTTGTAGTATATTAACACACAACTATTTATAATAT [CACACA_site3934] | 6.56
33 | TATCATAAACTTCCTTACTATACTTTTCTTATTCAT [CACACA_negctrl_site1341] | 6.5
34 | TAAAAAGGAAAACACACACACACATATATATATATA [CACACA_site3588] | 9.21
35 | ATTTTTAAGCATATCAAAAAAAAAAAAAAAATTAAT [CACACA_negctrl_site980] | 6.16
36 | TTATTATTAAGACACACACACAAAAAAAAAAAAAAA [CACACA_site6805] | 6.35
37 | TTTCCAATTAGTTTTGCATGTTGAAAAAATGTTGGA [TGCATGCA_site1035] | 6.4
38 | GGAAACACAATATATACACACATATATATATATATA [CACACA_site235] | 9.38
39 | ACACTTAAATATTGTTGTACAAAATGATAAAATGTA [XGTACX_site4588] | 6.83
40 | TTGATGTATACAATGTAGATTATTTAATATTTCAAT [GTGCAC_negctrl_site203] | 6.12
41 | ATTTATATTATAATATGTACACAAAAAAAATTAGGA [XGTACX_site565] | 6.91
42 | TTATATAACCCTCATGCATGCTAAGAAAAAAAAAAC [TGCATGCA_site936] | 6.59
43 | TAACATATCTTTAATACACACTTAAAAAAGTACTTA [CACACA_site4532] | 6.31
44 | TTGTTAGAGTATATTGAAAGGATAACCTTTTTTTAT [XGTACX_negctrl_site122] | 6.04

Row | Sequence | gcPBM binding intensity (ln)
45 | TTTTTAATAAAATGATTGATAATTATTAAATTAAAA [CACACA_negctrl_site488] | 5.79
46 | TTGTGTTTGCGTAAATGTACGGAAAGACTTGAAGAC [XGTACX_site7235] | 6.97
47 | ACCATACATACATACACACACACACCCATATATATA [CACACA_site2917] | 7.59
48 | TTTCATGTTTTAAAGTGTACATAAATATATTATATG [XGTACX_site3367] | 6.77
49 | GAGCACCAAAATATATGTACATATGATAAATGTGAA [XGTACX_site1130] | 6.97
50 | ACATATATATAATATATATTTTTCGTGTGGTGTCAC [CACACA_negctrl_site543] | 6.62
51 | TCACTTTTATAATATAATATTCTATATCTTATTTTT [GTGCAC_negctrl_site717] | 6.39
52 | TTTTTTATTTTATTTTTTTCTGCTTATCCACATTAG [XGTACX_negctrl_site108] | 6.48
53 | ATCATTGAAGTTAAAAATATAAAGTATTCAGAAGGG [XGTACX_negctrl_site560] | 6.76
54 | AATATATATATAGGATGTACACATAATTCAAATATA [XGTACX_site2755] | 6.75
55 | AGCCATTATAATTCTTGTACATAATATAGCTATTTT [XGTACX_site1723] | 6.87
56 | AATAATATTGAAATGTGTACGTATTTATATTTTATG [XGTACX_site8252] | 6.45
57 | TTTTTCTTTTTTACAGTGCATAAATATATGTATTGT [GTGCAC_site9399] | 8.27
58 | TTTTGTTATATTCAATATTTATATATTATAAATATA [CACACA_negctrl_site1705] | 6.41
59 | TTGTGAATAACTAAGAAGAAAAAGATAAATATGTAT [TGCATGCA_negctrl_site388] | 7.14
60 | TATTCATGCATATACACACACATATATTTATATTTT [CACACA_site7786] | 7.08
61 | AATAATATATGGTGTACACAAAAGTATAAATAATTT [CACACA_site5338] | 7.19
62 | TATAAAAAAATAATAAATAAATAAAAAGATTTCTTT [TGCATGCA_negctrl_site122] | 5.73
63 | TAGATACATACACGCACACACATATATAAATAAATA [CACACA_site6157] | 7.75
64 | TTACGTATGTATTATGTTGTATATGAAATTAAAAAA [GTGCAC_negctrl_site292] | 6.26
65 | TAATTATGTACTATTATACACACGTTTAATTGTAAA [CACACA_site206] | 6.52
66 | AAAAAAAACAGACACACACACATACACATACATACA [CACACA_site2857] | 6.96

Row | Sequence | gcPBM binding intensity (ln)
67 | TATTTAAATTGTAAGTGTACATATATAAATGTAAAA [XGTACX_site1609] | 6.35
68 | TATATAGTAATTTATTCACACAATTGGCACACCTCA [CACACA_site4679] | 6.67
69 | TATAATATATATTTGTGTCCACAACATTTTTAATAT [XGTACX_site2089] | 6.52
70 | TAGATACAGAAACACACACACACATACATATATACA [CACACA_site3437] | 6.75
71 | AATAAATTAAAACAGGTGCACTATATTACACACGCT | 9.7
72 | TTATGGAGAGTTATATGTACGAAAAATATGTATAAG [XGTACX_site515] | 6.7
73 | AGAATTATTGTTAATGCATGTGGAAGTTAAAATATT [TGCATGCA_site188] | 6.86
74 | CAATATAAAAAACACACACACAAACATATATTTATA [CACACA_site3703] | 6.93
75 | TGTCGGCTTAGATTAGTGCACTGAAAAATGAAGTAT [GTGCAC_site9919] | 10.2
76 | TATTTATATAAAAATACACACATGAATGGATATATA [CACACA_site6335] | 6.4
77 | CACCAATTCCTATGCACACACATCTGCATATTATAT [CACACA_site5049] | 9.86
78 | TTATTTACATCAAGTACATGCAGTAAAAAAAAAAAA [TGCATGCA_site351] | 6.41
79 | ACAAAACGAACATACGCATGTGTGTACATTAATATA [TGCATGCA_site922] | 7.03
80 | ATGAACAGTTCATGTTGTACAATCTCCATTTTTTAC [XGTACX_site3933] | 6.79
81 | ATATAATATATGTATACACACATATTATATAATATT [CACACA_site3699] | 6.46
82 | ATTAATTAAGGCACATGTACAAAATATTTTTTATAA [XGTACX_site1964] | 7.12
83 | TATACAATCTATATAACACACATATTTATATAAAAT [CACACA_site1797] | 6.65
84 | GTAACATACACATATACACACACACCGATATACATA [CACACA_site8278] | 7.21
85 | AATATAGTTCAATATACACACCCCTTTATTCATTTT [CACACA_site3625] | 6.57
86 | TATATATATATATATGCATGTACATATATTTGTTAT [TGCATGCA_site379] | 9.2
87 | TTTTTTTTTTTTTTTTGTACTTAAAAATTTATATAA [XGTACX_site7718] | 6.34
